Source: the BET-seq Pho4 binding data (Le et al. 2018)
This is one part of the list. Values were computed here from the reads of four pooled replicates and scatter widely.

target: T1, Pho4 (S. cerevisiae) (UniProt P07270); test: relative binding free energy (BET-seq); higher = weaker binding; details: reference: library average
T1 sequence: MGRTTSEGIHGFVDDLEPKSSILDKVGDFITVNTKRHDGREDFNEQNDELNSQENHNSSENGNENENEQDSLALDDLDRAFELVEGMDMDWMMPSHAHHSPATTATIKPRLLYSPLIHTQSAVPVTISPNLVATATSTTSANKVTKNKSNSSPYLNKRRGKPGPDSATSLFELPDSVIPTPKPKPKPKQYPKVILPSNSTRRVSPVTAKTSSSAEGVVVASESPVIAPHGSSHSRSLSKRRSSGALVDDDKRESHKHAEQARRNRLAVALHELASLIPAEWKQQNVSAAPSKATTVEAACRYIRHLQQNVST

Row | Sequence | relative binding free energy [kcal/mol]
1 | AGGGACACGTGTCATT | 0
2 | GGGGTCACGTGCCTAG | 0.19
3 | GGATACACGTGGGGTG | -0.1
4 | GAGGTCACGTGATGGT | 0.38
5 | CTTTGCACGTGTGGCG | -0.04
6 | AATGTCACGTGATGAG | 0.08
7 | GGTTGCACGTGGGGCG | 0.01
8 | GTCGTCACGTGGCTGT | 0.04
9 | GTTCGCACGTGTCTTG | -0.03
10 | TGCAGCACGTGAAGTG | 0.16
11 | GTTCTCACGTGCTTTG | 0.27
12 | GGGGACACGTGCGATG | 0.1
13 | AGGGGCACGTGGACGG | -0.04
14 | TATAACACGTGAAGGT | 0.19
15 | TTAAACACGTGGTTTG | 0.01
16 | TTCGGCACGTGGGTCT | -0.16
17 | TGGATCACGTGCGTGA | 0.08
18 | TGTGTCACGTGACATA | 0.13
19 | TTGTACACGTGACATT | 0.22
20 | TCGTACACGTGTGGTC | 0.16
21 | TCGGCCACGTGGTGTA | -0.04
22 | ACGGACACGTGGGAGT | -0.19
23 | GTGTTCACGTGTAAGA | 0.27
24 | GGGTGCACGTGGCAAA | -0.03
25 | ATAAACACGTGGTAGG | -0.06

Row | Sequence | relative binding free energy [kcal/mol]
26 | TTGCTCACGTGGTGAA | 0.23
27 | AATTACACGTGGGATT | 0.07
28 | TGGGTCACGTGAAATC | 0.35
29 | TGAGCCACGTGTTTAT | -0.02
30 | GGCGGCACGTGGTATA | -0.11
31 | CGAGTCACGTGGGCTG | -0.01
32 | TAGGGCACGTGTTTCA | -0.22
33 | ATCTTCACGTGATGGA | 0.37
34 | TTGTGCACGTGCGGAT | -0.12
35 | TCGGACACGTGTGAGT | 0.12
36 | GGATTCACGTGGATAG | 0.39
37 | GTAGGCACGTGAACGG | 0.14
38 | GTGGGCACGTGCGGAT | -0.09
39 | AGGGGCACGTGAGTAT | 0.13
40 | TACGTCACGTGGTGAA | 0.07
41 | GGGTTCACGTGCAGGG | 0.33
42 | AGTGGCACGTGGGAGC | -0.27
43 | CTTGACACGTGTTGAG | 0.02
44 | AGGGACACGTGGGCAA | 0
45 | TTTAACACGTGGAGCG | 0.04
46 | GGTGACACGTGGGCAT | -0.09
47 | TGACTCACGTGGTCGT | 0.19
48 | AGTCACACGTGGGTTT | 0
49 | GTGAACACGTGGGTTT | -0.01
50 | CAAATCACGTGGGTTT | 0.07

Row | Sequence | relative binding free energy [kcal/mol]
51 | GTTTACACGTGCAGAG | 0.27
52 | CGTTTCACGTGTTTAA | 0.18
53 | TGAGCCACGTGTGAGT | 0.05
54 | GGGTGCACGTGAAAGC | 0.24
55 | ATTCTCACGTGGTGTT | 0.19
56 | TGCAGCACGTGGATGT | -0.07
57 | TGTCTCACGTGAGGAT | 0.15
58 | ATTAGCACGTGTTCGT | -0.05
59 | TGGGACACGTGAATAT | 0.24
60 | TGGGGCACGTGTACGG | -0.1
61 | AATTTCACGTGTGGAA | 0.27
62 | AGACTCACGTGGGGGG | 0.08
63 | CAGCTCACGTGGGTTG | 0.04
64 | GGTGTCACGTGTTCTA | 0.21
65 | CAGGCCACGTGGGGGG | -0.33
66 | GAAAGCACGTGGTGGT | -0.11
67 | TGCTACACGTGGCGTG | -0.09
68 | GGAGTCACGTGAGTAG | 0.28
69 | AAGGGCACGTGTATGC | -0.07
70 | GAAATCACGTGTAGTT | 0.23
71 | TCTGTCACGTGACGGT | 0.1
72 | GGAAACACGTGTGCGG | 0
73 | CTTTTCACGTGGTCGT | 0.15
74 | TGGGGCACGTGTACGC | -0.01
75 | GTGGCCACGTGTAAAG | 0.09

Row | Sequence | relative binding free energy [kcal/mol]
76 | TGTTTCACGTGTGAAT | 0.27
77 | GTTTCCACGTGTAAGG | 0.09
78 | TAGGGCACGTGGAATT | -0.06
79 | TTTTACACGTGGGCGC | 0.04
80 | TGAGGCACGTGTTTGA | -0.1
81 | CGATTCACGTGTTGGG | 0.27
82 | ATACGCACGTGGTGGG | -0.31
83 | TCGTGCACGTGTAGAT | 0.06
84 | TCGGACACGTGGGAGA | 0
85 | GCAGACACGTGTGGGC | 0.11
86 | TGCTCCACGTGCGTGG | 0
87 | TTTCTCACGTGAGTCG | 0.46
88 | GGTGACACGTGAGAAT | 0.38
89 | GTGGGCACGTGTTGGA | -0.01
90 | ATGTGCACGTGGTTAA | -0.12
91 | GTTTACACGTGATATT | 0.17
92 | ATGTTCACGTGTGACG | 0.38
93 | CGGTTCACGTGATGCG | 0.31
94 | TGCATCACGTGGGGTA | 0.05
95 | TATGGCACGTGGTGCC | -0.25
96 | AGGTGCACGTGGAGAA | -0.06
97 | TTATTCACGTGGCTTA | 0.06
98 | TGGGTCACGTGACTGT | 0.22
99 | TTTTACACGTGATTTA | 0.2
100 | TGCTTCACGTGGCGGA | 0.31

Row | Sequence | relative binding free energy [kcal/mol]
101 | TAAAGCACGTGTGTTC | 0.06
102 | CGATTCACGTGAATGG | 0.35
103 | CAGAGCACGTGGGTGT | -0.27
104 | ATGTGCACGTGGTCTT | -0.14
105 | TCGAGCACGTGGGGAG | -0.23
106 | TTAGGCACGTGTAGTC | -0.07
107 | CGCTGCACGTGAATGG | 0.23
108 | TATTTCACGTGAAAGT | 0.23
109 | GTAAGCACGTGGTTCA | 0.01
110 | TTGGTCACGTGCGTGA | -0.11
111 | TCTGTCACGTGCCGTG | 0.17
112 | GGGAACACGTGCTGGG | 0.03
113 | CGAGTCACGTGGTAAG | 0.06
114 | GGCGTCACGTGTCTGT | 0.09
115 | TATGGCACGTGGTAGG | -0.17
116 | TATTGCACGTGATGCG | -0.02
117 | ATCGTCACGTGTCGTG | 0.06
118 | TGTTACACGTGTGTCG | 0.15
119 | AGTATCACGTGGTAGA | 0.06
120 | GGTTGCACGTGGAGCC | 0.07
121 | TAGGGCACGTGTAAGT | 0.05
122 | ATGTGCACGTGCGGTT | -0.05
123 | TTCTTCACGTGTGATA | 0.23
124 | TGGTACACGTGTCTTT | 0.16
125 | TGCGTCACGTGTAAGA | 0.15

Row | Sequence | relative binding free energy [kcal/mol]
126 | CGGGCCACGTGTTGGC | 0
127 | TTAAGCACGTGAGCGT | 0.07
128 | AATGGCACGTGTCATT | 0.05
129 | ATGTGCACGTGTTATC | -0.05
130 | TTGCACACGTGTGGGA | 0.02
131 | GGTTTCACGTGTTATC | 0.46
132 | GTGTGCACGTGGGCAC | -0.05
133 | CTGTTCACGTGGTCTA | 0.2
134 | ACGATCACGTGTGGTG | 0.09
135 | TCGAGCACGTGTGGTC | 0.05
136 | CGTAGCACGTGAGGTA | 0.3
137 | TCGTGCACGTGTGGTA | -0.13
138 | ACGTGCACGTGGTGGC | -0.14
139 | AAAGTCACGTGAATTG | 0.41
140 | ATACTCACGTGTGTAT | 0.2
141 | AGTAACACGTGTGCGG | -0.01
142 | AGATTCACGTGTAGTA | 0.18
143 | GTTGTCACGTGTGGGG | 0.15
144 | TGAGTCACGTGTGCGA | 0.07
145 | TTTAACACGTGGGGGA | -0.14
146 | TTATACACGTGAGAGA | 0.34
